Measured values taken from PubChem BioAssay AID588855 (National Center for Advancing Translational Sciences (NCATS), 2011).
Out of some 410,000 compounds screened, about 5,000 (1.2%) were called active. The inconclusive results got no clear call from the source; some entries with a clear call stand among them for comparison. The call rests on the fitted dose curve; in most records, active means well fitted inhibition curve with a large enough effect; inconclusive means small, poorly fitted or top-dose-only effect; inactive means no such curve, though single readings can be large or run the other way. Potencies beside an inconclusive call are fits to weak or partial responses and may not hold up.

Test: qHTS for Inhibitors of TGF-b; further: nearly all actives have a fitted effect of over 65% in size
Conditions: HepG2 CAGA-GFP TGF-b/SMAD3 reporter, GFP fluorescence, 18 h, TGF-beta stimulated, 500 pg/mL final; series mostly up to 46.1 µM; activity, negative = inhibition: at the top concentration
Summary of the method: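 Inhibition of TGF-beta-driven CAGA-GFP reporter expression in HEPG2 cells is measured by cellular GFP fluorescence after 18 h stimulation with 500 pg/mL recombinant TGF-beta in 1% FBS medium at 37 degrees C.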
On the % scale 0 is the no-effect control and ±100 the full control effect; potency means the concentration at half of the fitted maximal effect; tags describe the fitted curve by direction and shape.

**Q.** Which Potency does the source give for CC(=O)Nc1cc(C(=O)Nc2ccc3c(c2)N(C)C(=O)c2ccccc2S3)ccc1C here?
**A.** inconclusive: 35.5 µM [inhibitor, single point]

**Q.** With CCC1=NN(C(=O)c2ccccc2[N+](=O)[O-])C(O)(c2ccccc2)C1 (stereo not drawn) as the molecule, how does the Potency read?
**A.** inconclusive: 0.112 µM [inhibitor, full curve, poor fit]

**Q.** For CCOc1cc(C2NN=C(c3ccccc3)S2)ccc1OCc1ccc(F)cc1 (stereo not drawn), which Potency is on record?
**A.** inconclusive: 0.398 µM [inhibitor, partial curve, poor fit]

**Q.** For CCc1cccc(C)c1NS(=O)(=O)c1cc(Br)cnc1N, which Potency is on record?
**A.** inconclusive: 35.5 µM [inhibitor, single point]

**Q.** Which Potency does the source give for C/C=C/c1ccc(OCC(O)CN(C)Cc2ccc(SC)cc2)c(OC)c1 (stereo not drawn) here?
**A.** inconclusive: 35.5 µM [inhibitor, single point]

**Q.** For CCCN(CCC)C(=O)C1CCCN(c2ncnc3c2nc2n3CCCCC2)C1 (stereo not drawn), which Potency is on record?
**A.** inconclusive: 17.8 µM [inhibitor, single point]

**Q.** Which Potency does the source give for CC[C@@H](NC(=O)Cn1cc(C)c(=O)[nH]c1=O)c1ccccc1 here?
**A.** inconclusive: 5.62 µM [inhibitor, full curve]

**Q.** With CCCCCCN1C[C@H](n2cc(COC(=O)c3ccccc3)nn2)[C@@H](O)C[C@@H]1c1ccc(C)cc1 as the molecule, how does the Potency read?
**A.** inconclusive: 22.4 µM [inhibitor, single point]

**Q.** For O=C(Nc1nnc(SCc2ccccc2Cl)s1)c1cccc([N+](=O)[O-])c1, which Potency is on record?
**A.** inconclusive: 28.2 µM [inhibitor, single point]

**Q.** For Cc1ccccc1CNC(=O)c1ccc(CN2CC(=O)N3CCCCC3C2=O)cc1 (stereo not drawn), which Potency is on record?
**A.** inconclusive: 10 µM [inhibitor, partial curve, poor fit]

**Q.** With Cc1c2cnn(CC(=O)NCCN3CCOCC3)c(=O)c2c(C)n1Cc1ccccc1 as the molecule, how does the “activity, negative = inhibition” value read?
**A.** inactive: -4.76%

**Q.** With C#CCOCCOCCOCCNc1nc(N2CCN(C(=O)C(Cc3ccc(O)cc3)n3cc(C(N)C(C)CC)nn3)CC2)nc(N2CCN(C(=O)C(Cc3ccc(O)cc3)n3cc(C(N)C(C)CC)nn3)CC2)n1 (stereo not drawn) as the molecule, how does the Potency read?
**A.** inconclusive: 12.6 µM [inhibitor, single point]

**Q.** For Cc1cc(C)c2nc(N3CCC(C(=O)NCc4ccccn4)CC3)sc2c1, which Potency is on record?
**A.** inconclusive: 15.8 µM [inhibitor, single point]

**Q.** Which Potency does the source give for Cc1ccccc1Cn1c(SCc2ccc(C(=O)NCCc3ccccc3)cc2)nc2ccncc21 here?
**A.** inconclusive: 7.08 µM [inhibitor, partial curve, poor fit]

**Q.** With C[C@H](CO)N1C[C@H](C)[C@@H](CN(C)C)Oc2c(NC(=O)c3ccncc3)cccc2C1=O as the molecule, how does the Potency read?
**A.** inconclusive: 0.282 µM [inhibitor, full curve, poor fit]

**Q.** For N#Cc1cccc(S(=O)(=O)N2CCN(c3ccnc4cc(Cl)ccc34)CC2)c1, which “activity, negative = inhibition” value is on record?
**A.** inactive: -19.6%

**Q.** With CCNC(=O)C1(C)CCN(Cc2ccc(OC(F)(F)F)cc2)C1 (stereo not drawn) as the molecule, how does the “activity, negative = inhibition” value read?
**A.** inactive: -7.37%

**Q.** Which Potency does the source give for Cc1cccc(NC(=S)N/N=C/c2cccc(O)c2)c1C here?
**A.** inconclusive: 11.2 µM [inhibitor, partial curve, poor fit]

**Q.** With Cc1ccc2cc(-c3noc(C(C)(C)C)n3)c(=O)[nH]c2c1 as the molecule, how does the Potency read?
**A.** inconclusive: 6.31 µM [inhibitor, single point]

**Q.** Which “activity, negative = inhibition” value does the source give for O=C(CN1C(=O)CSc2ccc(S(=O)(=O)N3CCOCC3)cc21)NCCc1ccccc1 here?
**A.** inactive: -2.6%

**Q.** With COc1cccc(-c2n[nH]c3c2C(c2ccccn2)N(C)C3=O)c1 (stereo not drawn) as the molecule, how does the “activity, negative = inhibition” value read?
**A.** inactive: -8.02%

**Q.** With Cc1ccc(S(=O)(=O)CC(=O)c2ccccc2)cc1 as the molecule, how does the Potency read?
**A.** inconclusive: 4.47 µM [inhibitor, single point]

**Q.** For O=C(CC1N=C2c3ccccc3N=C(SCC(=O)Nc3ccc(F)cc3)N2C1=O)NCc1ccc2c(c1)OCO2 (stereo not drawn), which Potency is on record?
**A.** inconclusive: 10 µM [inhibitor, partial curve]

**Q.** Which “activity, negative = inhibition” value does the source give for O=C(CN1CCN(c2cccc(Cl)c2)CC1)NC1CCCc2ccccc21 (stereo not drawn) here?
**A.** inactive: -2.22%

**Q.** With Cc1cccc(NC(=O)Cn2cc(S(=O)(=O)Cc3ccccc3Cl)c3ccccc32)c1 as the molecule, how does the “activity, negative = inhibition” value read?
**A.** inactive: 0%

**Q.** Which “activity, negative = inhibition” value does the source give for COc1ccc(NC(=O)C2CC3C=CC2C3)c([N+](=O)[O-])c1 (stereo not drawn) here?
**A.** inactive: -25.9%

**Q.** Which “activity, negative = inhibition” value does the source give for N#CCCn1cc(C=C(C#N)C#N)c(-c2ccc(-c3ccccc3)cc2)n1 here?
**A.** inactive: -12.6%

**Q.** With CN(Cc1ccccc1)c1nc2c(c(=O)[nH]c(=O)n2C)n1Cc1ccccc1Cl as the molecule, how does the Potency read?
**A.** inconclusive: 5.62 µM [inhibitor, single point]

**Q.** Which Potency does the source give for O=C1N=c2ccccc2=C1c1sc(=S)n(NC(=O)c2cccc(O)c2)c1O here?
**A.** inconclusive: 35.5 µM [inhibitor, single point]

**Q.** Which Potency does the source give for O=C(c1ccc(Cn2c(=S)[nH]c3ccccc3c2=O)cc1)N1CCN(c2ccccn2)CC1 here?
**A.** inconclusive: 12.6 µM [inhibitor, single point]

**Q.** With Cc1cc(Nc2ccccc2)nc2cc(O)ccc12 as the molecule, how does the Potency read?
**A.** inconclusive: 35.5 µM [inhibitor, single point]

**Q.** With COC(=O)CCSc1cc(NCCOC(C)=O)c([N+](=O)[O-])c2nonc12 as the molecule, how does the Potency read?
**A.** inconclusive: 28.2 µM [inhibitor, single point]

**Q.** With O=C(COc1ccccc1)N1N=C(c2cccnc2)CC1(O)C(F)(F)F (stereo not drawn) as the molecule, how does the “activity, negative = inhibition” value read?
**A.** inactive: 0%

**Q.** Which Potency does the source give for COc1ccc(C(=O)Nc2nc(CC(=O)NCc3c(F)cccc3F)cs2)cc1 here?
**A.** inconclusive: 2.24 µM [inhibitor, partial curve, poor fit]

**Q.** For O=C(c1ccccc1Oc1ccccc1)N1CCN(c2ccccc2)CC1, which Potency is on record?
**A.** inconclusive: 35.5 µM [inhibitor, partial curve, poor fit]

**Q.** Which Potency does the source give for Cn1nc(C(F)(F)F)c(-c2ccc(Br)cc2)c1NC(=O)c1cccnc1 here?
**A.** inconclusive: 25.1 µM [inhibitor, single point]

**Q.** For Cc1cccc(/C=C2/S/C(=N/N=C3\CC4CCC3(C)C4(C)C)NC2=O)c1 (stereo not drawn), which Potency is on record?
**A.** inconclusive: 35.5 µM [inhibitor, single point]

**Q.** For Cc1c(C(=O)N2CCN(c3ccccc3)CC2)oc2c(Cl)cccc12, which Potency is on record?
**A.** inconclusive: 35.5 µM [inhibitor, single point]

**Q.** Which Potency does the source give for CCc1ccccc1NS(=O)(=O)c1cc(Br)cc2c1N(C(=O)C1CC1)CC2 here?
**A.** inconclusive: 35.5 µM [inhibitor, single point]

**Q.** Which “activity, negative = inhibition” value does the source give for Nc1c([N+](=O)[O-])cc2c3c(cccc13)CC2 here?
**A.** inactive: -7.05%

**Q.** For Cc1ccccc1-n1c(=O)/c(=C\c2ccco2)s/c1=C(/C#N)C(=O)Nc1ccccc1, which “activity, negative = inhibition” value is on record?
**A.** inactive: 2.33%

**Q.** Which Potency does the source give for CCCc1nnc(NC(=O)NCCN2C(=O)C3C4C=CC(C4)C3C2=O)s1 (stereo not drawn) here?
**A.** inconclusive: 35.5 µM [inhibitor, partial curve, poor fit]

**Q.** Which Potency does the source give for CCC1CCc2sc(C(=O)NCC(c3ccc(OC)cc3)N3CCOCC3)cc2C1 (stereo not drawn) here?
**A.** inconclusive: 20 µM [inhibitor, single point]

**Q.** With Cc1ccc(S(=O)(=O)Nc2ccccc2C(=O)OC(C)C(=O)Nc2ccc3ccccc3c2)cc1[N+](=O)[O-] (stereo not drawn) as the molecule, how does the Potency read?
**A.** inconclusive: 12.6 µM [inhibitor, single point]

**Q.** With O=C(Cc1ccccc1)N1CCN=C1SCc1ccc([N+](=O)[O-])cc1 as the molecule, how does the “activity, negative = inhibition” value read?
**A.** inactive: -6.13%

**Q.** With COc1cc(OC)c2c(c1C(CCN1CCOCC1)c1ccc(N(C)C)cc1)OC(=O)CC2c1ccc(N(C)C)cc1 (stereo not drawn) as the molecule, how does the Potency read?
**A.** inactive

**Q.** For CCOc1ccc(S(=O)(=O)c2c(C(=O)c3ccccc3)cnc3cc4c(cc23)OCCO4)cc1, which “activity, negative = inhibition” value is on record?
**A.** inactive: 7.78%

**Q.** For Cc1noc(Cn2c(=O)c3ccccc3n(CC(=O)Nc3ccc(C(C)C)cc3)c2=O)n1, which Potency is on record?
**A.** inconclusive: 3.98 µM [inhibitor, full curve]

**Q.** With CCn1cc(S(=O)(=O)c2ccc(C)cc2C)c(=O)c2cc(F)c(N3CCCCC3)cc21 as the molecule, how does the Potency read?
**A.** inconclusive: 11.2 µM [inhibitor, partial curve]

**Q.** For COc1ccc(O)c(CN2CCN(C/C=C/c3ccccc3)CC2)c1, which “activity, negative = inhibition” value is on record?
**A.** inactive: -7.78%

**Q.** With COC(=O)c1c(NC(=O)/C=C/c2ccc(OC)c(OC)c2)sc2c1CCC2 as the molecule, how does the “activity, negative = inhibition” value read?
**A.** inactive: -3.33%

**Q.** With CCN(CC)c1cc2c(cc1F)c(=O)c(S(=O)(=O)c1ccccc1)cn2C as the molecule, how does the “activity, negative = inhibition” value read?
**A.** inactive: -2.31%

**Q.** With CN(C)S(=O)(=O)c1ccc(C(=O)N2CCN(S(=O)(=O)c3cccs3)CC2)cc1 as the molecule, how does the Potency read?
**A.** inconclusive: 22.4 µM [inhibitor, single point]

**Q.** With COc1cccc(C(C)(O)c2nc(-c3ccc(N(C)C)cc3)cs2)c1 (stereo not drawn) as the molecule, how does the Potency read?
**A.** inconclusive: 15.8 µM [inhibitor, partial curve, poor fit]

**Q.** Which Potency does the source give for O=C(O)C(=O)Nc1ncn[nH]1 here?
**A.** inconclusive: 22.4 µM [inhibitor, partial curve]

**Q.** For CC(C)c1cc(C(N)=O)c(NC(=O)c2cccc(COc3ccc(Cl)cc3)c2)s1, which Potency is on record?
**A.** inconclusive: 15.8 µM [inhibitor, single point]

**Q.** Which Potency does the source give for CCc1ccc(NC2=CC(=O)CC(c3ccco3)C2)cc1 (stereo not drawn) here?
**A.** inconclusive: 0.126 µM [inhibitor, full curve, poor fit]

**Q.** With Cc1cccc(N(C)C(=O)CN(C)S(=O)(=O)c2ccc3[nH]c4c(c3c2)CCCC4)c1 as the molecule, how does the Potency read?
**A.** inconclusive: 15.8 µM [inhibitor, partial curve, poor fit]

**Q.** For CCOC(=O)C1CCN(C(=O)CCCn2nc(C)c3c(C)n(-c4ccc(C)cc4)nc3c2=O)CC1, which “activity, negative = inhibition” value is on record?
**A.** inactive: 4.69%

**Q.** With Cc1ccc(Cn2cc(/C=C(/C#N)C(=O)Nc3cccc(Cl)c3)c3ccccc32)cc1 as the molecule, how does the Potency read?
**A.** inconclusive: 35.5 µM [inhibitor, single point]

**Q.** Which Potency does the source give for CC1(C)CC(=O)C2=C(C1)OC(N)=C(C#N)C2c1cccs1 (stereo not drawn) here?
**A.** inconclusive: 11.2 µM [inhibitor, single point]

**Q.** For O=C(c1ccc2c(=O)n(-c3ccccc3)c(=S)[nH]c2c1)N1CCCCC1, which Potency is on record?
**A.** inconclusive: 11.2 µM [inhibitor, partial curve, poor fit]

**Q.** For COc1cc(C#Cc2ccc3cc(CCCO)oc(=O)c3c2)cc(OC)c1, which Potency is on record?
**A.** inconclusive: 7.08 µM [inhibitor, partial curve, poor fit]
